According to the supplement of paper PMC4604168 (melanoma cell lines):
Some of the results follow. Most values come without repeats; read them as rough.

What was measured:
Assay in all cases: cell count relative to DMSO control; melanoma cells; higher = more viable cells
Conditions in all cases: library dose: low library concentration; 72 h
MZ2-MEL = test system: MZ2-MEL
MeWo = test system: MeWo
RPMI7951 = test system: RPMI7951
RVH-421 = test system: RVH-421
SkMel28 = test system: SkMel28
SkMel2 = test system: SkMel2
SkMel30 = test system: SkMel30
SkMel5 = test system: SkMel5
UACC257 = test system: UACC257
UACC62 = test system: UACC62
WM115 = test system: WM115
WM1716 = test system: WM1716
WM1745 = test system: WM1745
WM3526 = test system: WM3526
WM3619 = test system: WM3619
WM451Lu = test system: WM451Lu
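Also: cell number obtained by counting DAPI-stained nuclei in high-throughput microscope images with image analysis software, screen run in 1,536-well plates.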

Row | Compound | cell count (MZ2-MEL) [%] | cell count (MeWo) [%] | cell count (RPMI7951) [%] | cell count (RVH-421) [%] | cell count (SkMel28) [%] | cell count (SkMel2) [%] | cell count (SkMel30) [%] | cell count (SkMel5) [%] | cell count (UACC257) [%] | cell count (UACC62) [%] | cell count (WM115) [%] | cell count (WM1716) [%] | cell count (WM1745) [%] | cell count (WM3526) [%] | cell count (WM3619) [%] | cell count (WM451Lu) [%]
1 | CC1(C)CCC(c2ccc(Cl)cc2)=C(CN2CCN(c3ccc(C(=O)NS(=O)(=O)c4ccc(N[C@H](CCN5CCOCC5)CSc5ccccc5)c(S(=O)(=O)C(F)(F)F)c4)cc3)CC2)C1 + C[C@@H]1CCN(C(=O)CC#N)C[C@@H]1N(C)c1ncnc2[nH]ccc12 [CP690550] (first compound 0.4 µM, partner dose 1 µM) | 94.1 | 75.1 | 71.7 | 81.5 | 101 | 88.9 | 67.5 | 71.1 | 84.6 | 104 | 89.4 | 64.3 | 16.2 | 73.3 | 71.1 | 81.7
2 | O=C(/C=C/c1cccnc1)NCCCCC1CCN(C(=O)c2ccccc2)CC1 + Cn1cncc1[C@@](N)(c1ccc(Cl)cc1)c1ccc2c(c1)c(-c1cccc(Cl)c1)cc(=O)n2C [tipifarnib] (first compound 0.01 µM, partner dose 0.01 µM) | 48.4 | 104 | 97.4 | 61.5 | 79.6 | 55.3 | 90.9 | 87.2 | 83.1 | 76.5 | 74.4 | 76.6 | 106 | 86.6 | 87.1 | 97
3 | O=C(/C=C/c1cccnc1)NCCCCC1CCN(C(=O)c2ccccc2)CC1 + CC1(C)NC(=O)N(c2ccc([N+](=O)[O-])c(C(F)(F)F)c2)C1=O [nilutamide] (first compound 0.01 µM, partner dose 1 µM) | 46.4 | 92.6 | 102 | 43.8 | 88.7 | 45.2 | 77.6 | 87 | 103 | 97.5 | 101 | 106 | 92.3 | 67.9 | 94.6 | 118
4 | CC1(C)CCC(c2ccc(Cl)cc2)=C(CN2CCN(c3ccc(C(=O)NS(=O)(=O)c4ccc(N[C@H](CCN5CCOCC5)CSc5ccccc5)c(S(=O)(=O)C(F)(F)F)c4)cc3)CC2)C1 + CCN(CC)CCCCNc1ncc2cc(-c3cc(OC)cc(OC)c3)c(NC(=O)NC(C)(C)C)nc2n1 [PD173074] (first compound 0.4 µM, partner dose 0.1 µM) | 100 | 67.1 | 45.8 | 55.1 | 88.3 | 85.4 | 84.5 | 72.1 | 96.8 | 89.1 | 85.7 | 75.8 | 10.7 | 86.6 | 76.2 | 73.3
5 | O=C(/C=C/c1cccnc1)NCCCCC1CCN(C(=O)c2ccccc2)CC1 + Cc1cc(N2CCOCC2)cc2[nH]c(-c3c(NC[C@@H](O)c4cccc(Cl)c4)cc[nH]c3=O)nc12 [BMS536924] (first compound 0.01 µM, partner dose 0.2 µM) | 47.5 | 103 | 128 | 37.8 | 80.6 | 50 | 86.2 | 87.8 | 81.2 | 90 | 100 | 94.5 | 85.9 | 79.8 | 75.7 | 92.6
6 | Cc1ccc(Nc2nccc(N(C)c3ccc4c(C)n(C)nc4c3)n2)cc1S(N)(=O)=O [Pazopanib] + Cc1cc([N+](=O)[O-])ccc1NS(=O)(=O)c1cc(Cl)ccc1Cl [FH535] (first compound 0.4 µM, partner dose 1 µM) | 71.6 | 91.8 | 94.3 | 83 | 76.6 | 105 | 74.7 | 80.2 | 88.9 | 89.8 | 93.3 | 73.1 | 97.1 | 87.7 | 99.7 | 81.4
7 | CC1(C)CCC(c2ccc(Cl)cc2)=C(CN2CCN(c3ccc(C(=O)NS(=O)(=O)c4ccc(N[C@H](CCN5CCOCC5)CSc5ccccc5)c(S(=O)(=O)C(F)(F)F)c4)cc3)CC2)C1 + CN(C)S(=O)(=O)c1ccc2c(c1)/C(=C/c1cc3c([nH]1)CCCC3)C(=O)N2 [SU6656] (first compound 0.4 µM, partner dose 0.4 µM) | 101 | 62.5 | 58.2 | 60.3 | 100 | 96.4 | 77.3 | 68.3 | 70.4 | 98.7 | 64.5 | 70.1 | 8.17 | 103 | 95.5 | 73.5
8 | O=C(/C=C/c1cccnc1)NCCCCC1CCN(C(=O)c2ccccc2)CC1 + COc1cc2ncnc(Nc3ccc(Oc4ccccc4)cc3)c2cc1OC [SrcI1] (first compound 0.01 µM, partner dose 2 µM) | 40 | 111 | 106 | 57.1 | 94.6 | 36.6 | 93.3 | 104 | 120 | 112 | 83.3 | 128 | 103 | 96.5 | 82.8 | 109
9 | O=C(/C=C/c1cccnc1)NCCCCC1CCN(C(=O)c2ccccc2)CC1 + NC(=O)Nc1cc(-c2cccc(F)c2)sc1C(=O)N[C@H]1CCCNC1 [AZD7762] (first compound 0.01 µM, partner dose 0.02 µM) | 40.4 | 123 | 83.8 | 50.3 | 91.7 | 40.2 | 102 | 97.4 | 136 | 128 | 76.8 | 98.9 | 84.2 | 77 | 47.5 | 108
10 | Cc1ccc(Nc2nccc(N(C)c3ccc4c(C)n(C)nc4c3)n2)cc1S(N)(=O)=O [Pazopanib] + O=C(CCCCCCC(=O)Nc1ccccc1)NO [vorinostat] (first compound 0.4 µM, partner dose 0.08 µM) | 71.1 | 97.3 | 101 | 99.8 | 79.6 | 97 | 79.2 | 90.2 | 88.1 | 87.7 | 85.4 | 90.4 | 88.8 | 91.7 | 103 | 81.4
11 | O=C(/C=C/c1cccnc1)NCCCCC1CCN(C(=O)c2ccccc2)CC1 + Cc1ccc(NC(=O)c2cccc(N(C)C)c2)cc1NC(=O)c1ccc(O)cc1 [ZM336372] (first compound 0.01 µM, partner dose 2 µM) | 36.1 | 108 | 91.5 | 58.8 | 68.3 | 47.3 | 78.3 | 110 | 108 | 91.5 | 88.5 | 119 | 86.1 | 92.3 | 71.8 | 123
12 | O=C(/C=C/c1cccnc1)NCCCCC1CCN(C(=O)c2ccccc2)CC1 + CCCCCCCCCCCC1=C(O)C(=O)C=C(O)C1=O [Embelin] (first compound 0.01 µM, partner dose 1.2 µM) | 80.2 | 118 | 85.3 | 54.7 | 96.6 | 72.6 | 100 | 94.5 | 131 | 105 | 76.7 | 94.7 | 115 | 108 | 88.7 | 102
13 | O=C(/C=C/c1cccnc1)NCCCCC1CCN(C(=O)c2ccccc2)CC1 + O=S(=O)(c1ccccc1)N(CC(F)(F)F)c1ccc(C(O)(C(F)(F)F)C(F)(F)F)cc1 [T0901317] (first compound 0.01 µM, partner dose 1.4 µM) | 41.1 | 93 | 105 | 37.2 | 91.7 | 40.4 | 100 | 92.2 | 85.6 | 102 | 83.9 | 91.8 | 85.3 | 99.9 | 71.7 | 140
14 | O=C(/C=C/c1cccnc1)NCCCCC1CCN(C(=O)c2ccccc2)CC1 + CO[C@@H]1[C@H](N(C)C(=O)c2ccccc2)C[C@H]2O[C@]1(C)n1c3ccccc3c3c4c(c5c6ccccc6n2c5c31)C(=O)NC4 [Midostaurin] (first compound 0.01 µM, partner dose 0.08 µM) | 29 | 84 | 87 | 45.6 | 79.8 | 50.3 | 91.8 | 87.5 | 78 | 80.5 | 69 | 54.9 | 80.5 | 91 | 62.5 | 103
15 | Cc1ccc(Nc2nccc(N(C)c3ccc4c(C)n(C)nc4c3)n2)cc1S(N)(=O)=O [Pazopanib] + COc1ccc(COc2ccc(Cc3cnc(N)nc3N)cc2OC)cc1 [GW2580] (first compound 0.4 µM, partner dose 1 µM) | 74.1 | 94.9 | 82.9 | 134 | 86.1 | 83 | 48.3 | 103 | 80 | 86.4 | 97.3 | 82.9 | 93.5 | 37.8 | 95.3 | 89.6
16 | CC1(C)CCC(c2ccc(Cl)cc2)=C(CN2CCN(c3ccc(C(=O)NS(=O)(=O)c4ccc(N[C@H](CCN5CCOCC5)CSc5ccccc5)c(S(=O)(=O)C(F)(F)F)c4)cc3)CC2)C1 + C=CCn1c(=O)c2cnc(Nc3ccc(N4CCN(C)CC4)cc3)nc2n1-c1cccc(C(C)(C)O)n1 [MK1775] (first compound 0.4 µM, partner dose 0.02 µM) | 97.8 | 71.7 | 46.3 | 72 | 85.1 | 74.6 | 55.5 | 84.3 | 75.3 | 76.9 | 73.7 | 50 | 5.8 | 61.1 | 37.7 | 88.9
17 | Cc1ccc(Nc2nccc(N(C)c3ccc4c(C)n(C)nc4c3)n2)cc1S(N)(=O)=O [Pazopanib] + Cn1cc(/C=C2\C(=O)Nc3cccnc32)c2ccccc21 [GW441756] (first compound 0.4 µM, partner dose 0.4 µM) | 82.1 | 103 | 95.5 | 126 | 84.6 | 106 | 68.4 | 84.2 | 77.3 | 114 | 102 | 99.6 | 98.1 | 92.9 | 84.2 | 94.9
18 | Cc1ccc(Nc2nccc(N(C)c3ccc4c(C)n(C)nc4c3)n2)cc1S(N)(=O)=O [Pazopanib] + NC(=O)Nc1cc(-c2cccc(F)c2)sc1C(=O)N[C@H]1CCCNC1 [AZD7762] (first compound 0.4 µM, partner dose 0.02 µM) | 80.1 | 102 | 88.1 | 106 | 145 | 103 | 89.7 | 103 | 118 | 111 | 103 | 93.6 | 69.1 | 84.2 | 53.3 | 116
